Data from PMC4336329 (PLoS ONE, 2015).
About 14,000 (4.5%) of roughly 310,000 compounds showed an effect of 50% or more. Effects have a minus sign here. Some of the results follow.

These compounds were tested against human ether-à-go-go-related gene (hERG) potassium channel (human, UniProt Q12809) (assay: primary screen, population patch clamp on CHO cells stably expressing hERG).
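Note: peak tail current of the secondary pulse compared with the same well before compound.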

Sequence of human ether-à-go-go-related gene (hERG) potassium channel (Q12809 whole entry, looked up): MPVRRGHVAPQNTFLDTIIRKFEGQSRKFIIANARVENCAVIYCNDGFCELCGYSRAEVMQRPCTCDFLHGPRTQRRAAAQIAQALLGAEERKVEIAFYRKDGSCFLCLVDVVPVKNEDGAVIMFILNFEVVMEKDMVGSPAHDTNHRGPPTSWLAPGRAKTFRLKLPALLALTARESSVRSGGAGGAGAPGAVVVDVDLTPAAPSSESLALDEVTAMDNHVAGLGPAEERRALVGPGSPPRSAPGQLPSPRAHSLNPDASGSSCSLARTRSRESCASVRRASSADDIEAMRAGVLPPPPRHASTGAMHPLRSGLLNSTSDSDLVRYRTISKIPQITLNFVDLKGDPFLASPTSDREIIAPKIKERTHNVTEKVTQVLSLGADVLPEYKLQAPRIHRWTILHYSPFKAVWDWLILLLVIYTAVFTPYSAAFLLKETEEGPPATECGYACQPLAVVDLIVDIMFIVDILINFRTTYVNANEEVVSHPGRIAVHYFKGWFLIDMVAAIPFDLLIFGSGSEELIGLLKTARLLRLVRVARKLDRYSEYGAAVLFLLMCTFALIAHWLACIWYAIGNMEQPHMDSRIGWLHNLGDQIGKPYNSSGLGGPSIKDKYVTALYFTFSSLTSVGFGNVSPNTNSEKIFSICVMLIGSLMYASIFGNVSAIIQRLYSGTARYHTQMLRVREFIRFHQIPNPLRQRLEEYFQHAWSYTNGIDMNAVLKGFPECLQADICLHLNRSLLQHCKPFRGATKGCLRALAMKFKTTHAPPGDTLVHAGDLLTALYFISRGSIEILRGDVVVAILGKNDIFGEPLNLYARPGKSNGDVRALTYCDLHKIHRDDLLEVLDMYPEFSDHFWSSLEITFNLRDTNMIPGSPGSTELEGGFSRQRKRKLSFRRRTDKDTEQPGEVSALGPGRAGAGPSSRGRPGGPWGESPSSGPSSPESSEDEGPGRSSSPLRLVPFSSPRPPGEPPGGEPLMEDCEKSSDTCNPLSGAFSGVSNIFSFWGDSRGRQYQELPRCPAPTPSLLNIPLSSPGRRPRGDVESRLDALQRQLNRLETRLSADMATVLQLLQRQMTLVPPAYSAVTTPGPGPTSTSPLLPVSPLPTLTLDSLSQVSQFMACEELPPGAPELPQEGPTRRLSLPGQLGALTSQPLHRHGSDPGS

Structure (SMILES)	hERG current change (%, negative = inhibition) at 10uM
CC(/C=C/c1ccccc1)=N/NC(=O)Cn1nnc(N)n1	13.3%
O=C(OCc1ccc(COC(=O)c2cccnc2Cl)cc1)c1cccnc1Cl	28.7%
Cc1ccc(C(=O)N2CCCCCC2)cc1S(=O)(=O)N1CCOCC1	0.405%
N#C/C(=N\Nc1ccccc1[N+](=O)[O-])C(=N)N1CCCCC1	33.8%
O=C(NCC(O)c1ccc([N+](=O)[O-])cc1)Nc1ccccc1 (stereo not shown)	-3.09%
Cc1n[nH]c(=S)n1/N=C/c1ccccc1	-1.99%
COc1cccc(NC(=O)C2C3CCC4C(CCC32)C4(Cl)Cl)c1 (stereo not shown)	16.3%
O=C(NCc1ccco1)C1CC(c2ccccc2C(F)(F)F)=NO1 (stereo not shown)	19.1%
Cc1ccc(NC(=O)CSc2nccc(=O)[nH]2)c(S(=O)(=O)N2CCOCC2)c1	1.19%
COc1ccc(CCNC(=O)CSc2nnc3ccc(-c4cccnc4)nn23)cc1OC	21.2%
Cc1ccccc1-n1c(C)nnc1SCC(=O)NCC1CCCO1 (stereo not shown)	-2.57%
CCCNC(=O)C(Cc1ccc(C(F)(F)F)cc1)NC(=O)c1ccc2ccccc2n1 (stereo not shown)	14%
Cc1c(C(=O)Nc2c(F)cc(F)cc2Br)sc2ncn(CC(=O)N3CCCC3)c(=O)c12	4.69%
CCC(CC)C(=O)NCCc1ccc(S(N)(=O)=O)cc1	11.8%
O=C(COC(=O)C1CCN(S(=O)(=O)c2cccs2)CC1)c1cc2ccccc2o1	8.29%
O=C(CN1C(=O)CC(c2ccccc2)S(=O)(=O)c2ccccc21)N1CCCC1 (stereo not shown)	16.8%
O=S(=O)(NC1CCCCC1)c1cccc2nsnc12	14.9%
Cc1cc(C)c(S(=O)(=O)N2CCCCC2)c(C)c1-n1ncnn1	4.01%
O=C(NCC(=O)N(Cc1cccs1)C(C(=O)NC1CCCC1)c1cccnc1)c1ccco1 (stereo not shown)	7.17%
O=C(CN1CCCCC1)N/N=C/c1ccc(Cl)cc1	-66.9%
COC(=O)[C@@H](NC(=O)Nc1ccc(OC)cc1)C(C)C	16.5%
COc1ccc(Cl)cc1NC(=O)c1cc(C)no1	11.1%

Structure (SMILES)	hERG current change (%, negative = inhibition) at 10uM
CCCCc1c(C)c(C#N)c2[nH]c3ccccc3n2c1=O	18.1%
CCc1ccc(C(O)(C(C)C)C(CN2CCOCC2)c2ccccc2)cc1.Cl (stereo not shown)	5.31%
O=C(CC(=O)N/N=C/c1ccccc1O)NCc1cccnc1	-6.06%
O=S(=O)(c1c(F)cccc1F)N1CCN(C(=S)NCc2ccc3c(c2)OCO3)CC1	39.1%
O=C(O)C(=O)O.O=[N+]([O-])c1cccc(OCCCN2CCC(Cc3ccccc3)CC2)c1	-78.1%
COC(=O)C1=C(c2ccc(OC(F)(F)F)cc2)C[C@@H]2CC[C@H]1N2C(=O)NCCNC(C)=O	2.65%
COc1cccc(N/C(SCc2ccccc2Cl)=C(/C#N)C(=O)NCc2cccs2)c1	9.67%
CC1=C(C(N)=O)C(c2cccnc2)n2nc(SCc3ccccc3Cl)nc2N1 (stereo not shown)	0.298%
COc1ccc(CCNC(=O)c2ccc(N3CCCCS3(=O)=O)cc2)cc1OC	8.5%
O=C(CSc1nc2ccccc2[nH]1)Nc1nc(-c2ccccc2)c(-c2ccccc2)o1	-3.44%
COc1ccc(NC(=O)CN(C)CC(=O)N(C)C2(C#N)CCC(C)CC2)cc1 (stereo not shown)	-8.16%
CCN(C(=O)C1CCCN(c2nc(-c3ccc(OC)cc3)no2)C1)c1ccc(OC)cc1 (stereo not shown)	-0.461%
COc1ccc(-c2noc(C3CCCN(S(=O)(=O)c4cccc(Cl)c4)C3)n2)cc1OC (stereo not shown)	-3.87%
Cc1ccc(S(=O)(=O)N(CC(=O)N=Nc2c(O)[nH]c3ccccc23)c2ccc(C)c(C)c2)cc1	5.7%
CCOc1ccc(C2C(C#N)=C(N)Oc3cc(C)n(Cc4ccco4)c(=O)c32)cc1OC (stereo not shown)	-9.3%
CC(C)C(C(=O)OCC(=O)c1ccc2c(c1)NC(=O)CO2)N1C(=O)c2ccccc2C1=O (stereo not shown)	-3.1%
Cc1c(C(=O)NCc2ccccn2)oc2c(Cl)cccc12	-19.3%
CCc1cc(=O)oc2cc3oc(C)c(C)c3cc12	-7.76%
CCC(C)c1ccccc1N1CC(C(=O)Nc2ccc(N3CCOCC3)cc2)CC1=O (stereo not shown)	0.799%
CCC(C)c1ccc(S(=O)(=O)N2CCN(C(C)CC(=O)O)CC2)cc1 (stereo not shown)	3.41%
O=C(Cc1ccc(Cl)cc1)Nc1ccc2oc(-c3ccncc3)nc2c1	7.8%
Cc1cc(NC(=O)COC(=O)C2CCC2)no1	16.1%

Structure (SMILES)	hERG current change (%, negative = inhibition) at 10uM
CCn1c(=O)c(C(=O)CN2CCc3ccccc32)c(N)n(Cc2ccccc2)c1=O	19%
CCOCCCNS(=O)(=O)c1ccc(OC)c(Cl)c1Cl	5.64%
CC(NC(=O)CSc1nnc(CC(=O)Nc2ccc(Cl)c(Cl)c2)n1C)c1ccccc1 (stereo not shown)	4.55%
CCOC(=O)C1CCCN(S(=O)(=O)c2cc3c4c(c2)CCC(=O)N4CCC3)C1 (stereo not shown)	-8.46%
O=C(CNC(=O)c1ccccc1)Oc1ccc([N+](=O)[O-])cc1	6.91%
Cc1nc2cc(C(=O)OCC(=O)NC3CCS(=O)(=O)C3)ccc2n1-c1ccccc1 (stereo not shown)	0.511%
CSc1ccc(-c2nc(O)c3cnccn23)cc1	16.3%
CCCCc1cc(=O)oc2cc(OCC(=O)Nc3ccccn3)ccc12	4.33%
CN(CC(=O)Nc1ccccc1N1CCCC1)S(=O)(=O)c1ccc(F)cc1	-0.805%
COc1ccccc1CNC(=O)CCCNS(=O)(=O)c1cccc2nsnc12	-1.57%
O=C(Nc1cc(S(=O)(=O)N2CCOCC2)ccc1Cl)c1cc2ccccc2o1	-18.5%
O=C(O)c1cc(O)c2c(c1)[C@@H]([C@H]1c3cc(C(=O)O)cc(O)c3C(=O)c3c(O[C@@H]4O[C@H](CO)[C@@H](O)[C@H](O)[C@H]4O)cccc31)c1cccc(OC3O[C@H](CO)[C@@H](O)[C@H](O)[C@H]3O)c1C2=O (stereo partly shown)	2.71%
Cc1cccc(N(C)C(=O)CN2C(=O)COc3ccc(S(=O)(=O)N4CCCCCC4)cc32)c1	-12.7%
Cc1ccc(-c2c(C)n([O-])c3c([n+]2=O)CCC3)cc1	-8.72%
CCCCn1c(=O)c(C=Nc2cccnc2Cl)c(O)n(CCCCl)c1=O	-15.9%
Cc1nc2c3ccccc3nc(NNC(=O)CCC(=O)N3CCCC(C)C3)n2n1 (stereo not shown)	5.49%
CCCn1nnc(NC(=O)c2ccc(-c3cccc(Cl)c3)o2)n1	-55.3%
CCCNC(=O)COC(=O)c1c2c(nc3ccccc13)CCC2	-11.5%
CC1CN(C(=O)c2c(Br)cnn2C)CC(C)O1 (stereo not shown)	0.856%
CCN(CC)S(=O)(=O)c1cccc(C(=O)N[C@H](C(=O)NNC(=O)c2ccccc2)C(C)C)c1	5.65%
O=C(NCCc1cccs1)C1CC(c2c(Cl)cccc2Cl)=NO1 (stereo not shown)	-19.8%
COc1ccccc1Nc1nc(N)nc(-c2oc3ccccc3c2C)n1	-5.69%

Structure (SMILES)	hERG current change (%, negative = inhibition) at 10uM
CCOc1ccccc1NC1=C(Cl)C(=O)N(Cc2ccccc2)C1=O	-6.59%
Cc1ccc(C)c(-n2c(-c3csc(C)c3)n[nH]c2=S)c1	17.4%
Cn1c(C(=O)O)ccc1S(=O)(=O)N1CCCCCC1	14.3%
CCOC(=O)c1cc(NC(=O)c2ccc(Cl)cc2)c(=O)oc1-c1ccccc1	-2.34%
O=C1CC(C(=O)O)S/C(=N\N=C\c2ccc(Br)cc2)N1 (stereo not shown)	-9.54%
Cc1ccc(NC(=O)CCN2CCc3ccccc3C2)cc1.Cl	-60.8%
Cn1cccc1C(=O)OCC(=O)Nc1cccc(S(=O)(=O)N2CCOCC2)c1	-14.7%
CCC(=O)Nc1c(C)nn(C(=O)CC)c1C	-6%
N#Cc1c(N)n(CCNC(=O)c2cccs2)c2nc3ccccc3nc12	10.4%
CCCCC(=O)Nc1cc(C)c2c(=O)oc3ccccc3c2n1	4.39%
C/C(=N/N=C1/NC(=O)CC(C(=O)Nc2ccccc2)S1)c1cccs1 (stereo not shown)	3.32%
COc1cc(C(=O)O)ccc1OCC(=O)N1CCOCC1	0.586%
Cc1ccc(NC2CCCN(C(=O)CSc3ccccn3)C2)cc1C (stereo not shown)	-0.578%
CCC(C)N(CCNC(=O)CC1Oc2ccc(C)cc2NC1=O)C1CCCCC1 (stereo not shown)	-71.5%
N#C/C(=N\Nc1ccc(Cl)c(Cl)c1)C(=O)C1CC1	18.5%
CC(=O)c1cc2ccc(O)cc2oc1=O	10.7%
COc1ccc(C(=O)NCc2c(C)nn(Cc3ccccc3)c2C)cc1S(=O)(=O)N1CCOCC1	-17.8%
Cc1nnc(SCC(=O)NCC(=O)Nc2ccc(F)c(F)c2F)n1Cc1ccccc1	16.2%
CCOc1ccccc1NC(=O)C1CCN(c2nc(-c3ccc(OC)cc3)no2)CC1	14.3%
